Reference: PubChem BioAssay AID686978 (National Center for Advancing Translational Sciences (NCATS), 2013)
“And” between values parts separate entries of the source, which are not always exact repeats. Equal values may be shown once. Out of some 420,000 compounds screened, about 64,000 (15%) were called active. Inconclusive results, whose numbers are uncertain, are shown with a selection of clear calls. The call rests on the fitted dose curve; in most records, active means well fitted inhibition curve with a large enough effect; inconclusive means small, poorly fitted or top-dose-only effect; inactive means flat fitted curve, though single readings scatter. Where the call is inconclusive, the potency comes from a doubtful curve fit. Some compounds were tested as several samples or in several runs, with calls that do not always agree.

experiment: qHTS for Inhibitors of human tyrosyl-DNA phosphodiesterase 1 (TDP1): qHTS in cells in absence of CPT; conditions: DT40 Tdp1-/- hTDP1 cells, no CPT, ATP luminescence, 48 h; series mostly up to 46.2 µM; further: nearly all actives have a fitted effect of over 55% in size
How it was run: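 Growth kinetics read by CellTiter-Glo luminescence after ≥48 hr at 37 °C. Cells: DT40 Tdp1-/- stably carrying human TDP1, 400 per well, compound exposure in the absence of CPT (DMSO vehicle).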
Potency means the concentration at half of the fitted maximal effect; tags describe the fitted curve by direction and shape.

| SMILES | Potency |
| --- | --- |
| CCOc1ccc(OCc2ccc(C(=O)NC(C)C)o2)cc1 | inconclusive: 25.9 µM [inhibitor, single point] |
| CCN(CC)S(=O)(=O)c1ccc2nc(NC(=O)c3cccs3)sc2c1 | inconclusive: 18.4 µM [inhibitor, single point] |
| Cc1ccc(Cl)cc1N1CCN(C(=O)c2cc3c(=O)n(C)c4ccccc4c3n2C)CC1 | active: 16.4 µM |
| CCCCC(=O)N1CC(=O)Nc2ccc(F)cc2C1c1ccc(F)cc1 (configuration not stated) | inactive and inconclusive: 25.9 µM [inhibitor, single point] |
| CCNC(=O)/C=C1\NC(C)(C)Cc2c1ccc1ccccc21 | active: 20.6 µM |
| Cn1c(=O)c2c(nc(Br)n2CCSc2nnnn2-c2ccccc2)n(C)c1=O | inconclusive: 10.3 µM [inhibitor, partial curve] |
| CCOc1ccc(CN2CCCC(CO)(Cc3ccc(F)cc3)C2)cc1 (configuration not stated) | inconclusive: 29.1 µM [inhibitor, single point] |
| CN(C[C@H](Cc1ccccc1)N(C[C@@H](Cc1cccc2ccccc12)N(CCc1ccccc1)N=O)N=O)N=O | inconclusive: 13 µM [inhibitor, partial curve, poor fit] |
| CCOc1cc(Cn2c(-c3ccc(O)c(OCC)c3)nc3ccccc32)ccc1O | inconclusive: 20.6 µM [inhibitor, single point] |
| COc1ccc(-n2c(-c3ccccc3F)nc3c(cnn3-c3ccc(C)cc3)c2=O)cc1 | active: 13 µM |
| Cc1cc(C)cc(NC(=O)c2nnn(Cc3cccc(Br)c3)c2N)c1 | inconclusive: 16.4 µM [inhibitor, single point] |
| Cc1ccc(CCNC(=O)CN2C(=O)COc3ccc(S(=O)(=O)N4CCCC4)cc32)cc1 | inconclusive: 25.9 µM [inhibitor, single point] |
| CCOc1ccccc1NC(=O)CSc1nc2ccccc2nc1Cc1ccc(C)cc1 | inconclusive: 18.4 µM [inhibitor, single point] |
| Cc1ccc2c(Sc3ccccc3)c(C(=O)NCc3ccccc3F)[nH]c2c1 | inconclusive: 8.2 µM [inhibitor, partial curve] |
| O=C1CC(SCc2nc3ccccc3[nH]2)C(=O)N1c1ccc(F)cc1 (configuration not stated) | active: 18.4 µM |
| O=C(c1ccc(Cn2cc(Cl)c([N+](=O)[O-])n2)cc1)N1CCN(Cc2ccccc2)CC1 | inconclusive: 29.1 µM [inhibitor, single point] |
| Cc1nc2c3cccnc3nn2c(C)c1CCC(=O)NCc1ccccc1Cl | inconclusive: 23.1 µM [inhibitor, single point] |
| COc1ccc(Cc2c(-c3ccccc3)nc3c4ccccc4ccn23)c(C)c1 | active: 14.6 µM |
| Cc1ccc(S(=O)Cc2ccc(C(=O)NCc3ccc(OC(C)C)cc3)o2)cc1 (configuration not stated) | inconclusive: 18.4 µM [inhibitor, single point] |
| O=C1CCCN1CCCNC(=S)Nc1ccc(Nc2ccccc2)cc1 | inactive |
| CC(=O)c1ccc(NC(=O)c2sc(-n3nc(C)c(CCC(C)C)c3C)nc2C)cc1 | inconclusive: 18.4 µM [inhibitor, single point] |
| COc1ccc(N2CCN(C(CNC(=O)c3cccs3)c3ccco3)CC2)cc1 (configuration not stated) | inactive |
| COc1ccc2nc(NC(=O)CSc3nc(C)cc(C)n3)sc2c1 | inconclusive: 29.1 µM [inhibitor, single point] |
| COC(=O)c1nnn(-c2ccsc2C(=O)OC)c1C(=O)OC | inactive |

| SMILES | Potency |
| --- | --- |
| COc1ccc(Cl)cc1-c1n[nH]c(=S)n1Cc1ccccc1 | inconclusive: 29.1 µM [inhibitor, single point] |
| O=C(SCC(O)C(O)CS)c1cccs1 (configuration not stated) | inactive |
| COCCn1c(SC(C(=O)Nc2cc(C)ccc2OC)c2ccccc2)nnc1-c1ccc(Cl)cc1 (configuration not stated) | inactive |
| Cc1ccc(SCc2c(C#N)c3ccccc3n2C)cc1 | active: 20.6 µM |
| CCn1c(CNC(=O)C23CC4CC(CC(C4)C2)C3)nnc1SCC(=O)Nc1ccc(C)cc1 | inconclusive: 29.1 µM [inhibitor, partial curve, poor fit] |
| O=C1[C@@H]2C(Cc3ccc(O)cc3)NC3(C(=O)Nc4ccc(F)cc43)[C@@H]2C(=O)N1c1ccccc1 (some centres not stated) | inactive |
| O=C(N/C(=C\c1ccc(Br)cc1)C(=O)N1CCCC1)c1cccs1 | inconclusive: 16.4 µM [inhibitor, single point] |
| O=c1c2ccccc2oc2ccc(NCCCN3CCOCC3)cc12 | inactive |
| O=[N+]([O-])c1ccc(C(=S)N2CCN(Cc3ccccc3)CC2)cc1 | inconclusive: 29.1 µM [inhibitor, single point] |
| CNC(=S)N1CCN(c2ccc(Cl)c(Cl)c2)CC1 | active: 16.4 µM |
| CN(C(=O)c1ccccc1C(=O)OCC(=O)Nc1cccc(Br)c1)c1ccccc1 | inactive |
| C/C(=N\NC(=O)c1nnn(-c2nonc2N)c1CSc1ccccc1)c1cccnc1 | inconclusive: 16.4 µM [inhibitor, single point] |
| COC(=O)c1ccc2nc(-c3ccc(F)cc3)c(Cc3ccsc3)n2c1 | active: 18.4 µM |
| Cc1cc(Cl)ccc1NC(=O)C1CCCN1S(=O)(=O)c1ccc2c(c1)CCCC(=O)N2 (configuration not stated) | active: 8.2 µM |
| COc1ccc(C(=O)Nc2nncs2)cc1S(=O)(=O)N1CCOCC1 | inactive |
| CCOc1cc(N2CCOCC2)c(OCC)cc1NC(=O)c1c(C)noc1C | inactive |
| CCCCCCCCCCCCCCCC[N+](C)(C)CC | active: 0.517 µM |
| O=C(NCC(c1ccco1)N1CCc2ccccc2C1)c1ccccc1 (configuration not stated) | inconclusive: 29.1 µM [inhibitor, single point] |
| CCc1c(C)sc2c1CCN(C(=O)Nc1ccccc1Cl)C2c1ccc(OC)cc1 (configuration not stated) | active: 14.6 µM |
| COc1ccccc1NS(=O)(=O)c1cc(NC(=O)c2ccccc2C)ccc1N1CCOCC1 | inconclusive: 20.6 µM [inhibitor, single point] |
| CC(C)(C)c1ccc(OCC(O)CNC(=O)c2ccccc2C(=O)O)cc1 (configuration not stated) | inconclusive: 32.6 µM [inhibitor, single point] |
| Cc1ccc(C2(C(F)(F)F)N=C3Sc4cc(C)cc(C)c4N3C(=O)N2)cc1 (configuration not stated) | inconclusive: 18.4 µM [inhibitor, partial curve] |
| O=C(OC1CCOC1=O)c1ccc(Cl)c(S(=O)(=O)N2CCOCC2)c1 (configuration not stated) | inactive |
| Cc1ccccc1OCC(=O)Nc1ccc(N2CCOCC2)cc1N1CCOCC1 | inconclusive: 13 µM [inhibitor, partial curve, poor fit] |

| SMILES | Potency |
| --- | --- |
| CCOc1cc(-c2cc(-c3ccc(OC)cc3)nc(N)c2C#N)ccc1O | inconclusive: 29.1 µM [inhibitor, single point] |
| C[C@H](CO)N1C[C@H](C)[C@@H](CN(C)Cc2ccc(Cl)c(Cl)c2)Oc2c(NC(=O)CCC(F)(F)F)cccc2C1=O | active: 11.6 µM |
| CC(C)c1ccc(NC(=O)CSc2nc3ccsc3c(=O)n2CCC(=O)O)cc1 | inactive |
| O=C(CC1CS(=O)(=O)CC1CC(=O)Oc1ccccc1F)Oc1ccccc1F (configuration not stated) | inactive |
| O=C(COc1ccc([N+](=O)[O-])cc1)Nc1cc(S(=O)(=O)N2CCCCC2)ccc1N1CCCCC1 | inconclusive: 29.1 µM [inhibitor, single point] |
| Cc1ccc(N(CC(=O)N/N=C/c2cc(C)n(-c3ccccc3)c2C)S(C)(=O)=O)c(C)c1 | inconclusive: 16.4 µM [inhibitor, single point] |
| CC(/C=C1\NC(=S)NC1=O)=C\c1ccccc1 | inconclusive: 16.4 µM [inhibitor, partial curve, poor fit] |
| CCOc1ccc(C(C)=O)cc1COc1ccc(C)nc1[N+](=O)[O-] | inconclusive: 20.6 µM [inhibitor, single point] |
| O=C1OCC(c2ccccc2)=C1c1ccccc1[N+](=O)[O-] | inconclusive: 9.2 µM [inhibitor, partial curve] |
| O=C(CNc1ccccc1F)Nc1cccc(S(=O)(=O)N2CCCCC2)c1 | inactive |
| CC1CCN(Cc2cc(=O)oc3ccc4ccccc4c23)CC1 | inconclusive: 18.4 µM [inhibitor, single point] |
| CC(C)c1ccc(-c2nn(-c3ccccc3)cc2C2C(C#N)=C(N)OC3=C2C(=O)CC(C)(C)C3)cc1 (configuration not stated) | active: 18.4 µM |
| CN(C)c1cc(-c2ccccc2)nc(-c2ccccc2)n1 | inactive |
| CC1CCc2onc(C(=O)N3CCN(c4ccc(Cl)cc4)CC3)c2C1 (configuration not stated) | inactive |
| Cc1onc(C(=O)NCc2ccccn2)c1[N+](=O)[O-] | inactive |
| CCOc1ccc(S(=O)(=O)NCc2cccnc2)cc1C(C)C | inconclusive: 29.1 µM [inhibitor, single point] |
| O=C(NCc1ccc(F)cc1)c1cc(C2CCCCN2S(=O)(=O)c2cccc3cccnc23)on1 (configuration not stated) | inconclusive: 29.1 µM [inhibitor, single point] |
| CC1CCCN(c2nc3ccccc3nc2C(C#N)S(=O)(=O)c2ccccc2)C1 (configuration not stated) | inconclusive: 25.9 µM [inhibitor, single point] |
| Cc1ccc(Cn2ccn(Cc3ccc(C)cc3)c(=O)c2=O)cc1 | inactive |
| O=C(COc1ccc(Cl)c(Cl)c1)NC1CCS(=O)(=O)C1 (configuration not stated) | inactive |
| Cc1ccc(S(=O)(=O)c2nnn3c2nc(N2CCN(c4ccccn4)CC2)c2ccccc23)cc1 | inactive |
| COC(=O)c1c(NC(=O)c2cccc(N3C(=O)CCC3=O)c2)sc2c1CCN(C(C)=O)C2 | inactive |
| CN(CC(=O)NC(=O)NCc1ccco1)Cc1nc2ccccc2c(=O)[nH]1 | active: 1.64 µM |
| COc1ccc(-c2cc(NC=O)c3ncc(-c4cccc(C(=O)N(C)C)c4)n3c2)c(OC)c1 | active: 16.4 µM |
